Data: paper PMC9911399, “Two distinct binding modes provide the RNA-binding protein RbFox with extraordinary sequence specificity”
Positions count from the first letter of the chain named. This is one part of the list.

T1: RBFOX1 RRM RbFoxmut (Fox-RRM*) (Homo sapiens, UniProt Q9NWB1 109-208, R118D;E147R;N151S;E152T)
T1 sequence: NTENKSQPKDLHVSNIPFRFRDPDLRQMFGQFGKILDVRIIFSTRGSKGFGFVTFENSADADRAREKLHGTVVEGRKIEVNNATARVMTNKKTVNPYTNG

B1: AGGAAUG (DNA:RNA)
RNA: GGGAGACCGGAAUUCAGAUUGUCCAGGAAUGUUAAAUCCCGUCGUAGCCACCA
DNA 1: CAATCTGAATTCCGGTCTCCC
DNA 2: TGGTGGCTACGACGGGATT
B2: UCAACUG (DNA:RNA)
RNA: B1 RNA with A25U, G26C, G27A, A29C
DNA 1: CAATCTGAATTCCGGTCTCCC
DNA 2: TGGTGGCTACGACGGGATT
B3: CCCCCCA (DNA:RNA)
RNA: GGGAGACCGGAAUUCAGAUUGUCCCCCCCCAUUAAAUCCCGUCGUAGCCACCA
DNA 1: CAATCTGAATTCCGGTCTCCC
DNA 2: TGGTGGCTACGACGGGATT
B4: CGGUGUC (DNA:RNA)
RNA: B1 RNA with A25C, A28U, A29G, G31C
DNA 1: CAATCTGAATTCCGGTCTCCC
DNA 2: TGGTGGCTACGACGGGATT
B5: UGAAUGU (DNA:RNA)
RNA: B1 RNA with A25U, G27A, A29U, U30G, G31U
DNA 1: CAATCTGAATTCCGGTCTCCC
DNA 2: TGGTGGCTACGACGGGATT
B6: CCCCGUG (DNA:RNA)
RNA: B3 RNA with C29G, C30U, A31G
DNA 1: CAATCTGAATTCCGGTCTCCC
DNA 2: TGGTGGCTACGACGGGATT
B7: AGCGGUA (DNA:RNA)
RNA: B1 RNA with G27C, A28G, A29G, G31A
DNA 1: CAATCTGAATTCCGGTCTCCC
DNA 2: TGGTGGCTACGACGGGATT
B8: GUAAGUA (DNA:RNA)
RNA: B1 RNA with A25G, G26U, G27A, A29G, G31A
DNA 1: CAATCTGAATTCCGGTCTCCC
DNA 2: TGGTGGCTACGACGGGATT
B9: AUAUCGG (DNA:RNA)
RNA: B1 RNA with G26U, G27A, A28U, A29C, U30G
DNA 1: CAATCTGAATTCCGGTCTCCC
DNA 2: TGGTGGCTACGACGGGATT
B10: GGCACUC (DNA:RNA)
RNA: B1 RNA with A25G, G27C, A29C, G31C
DNA 1: CAATCTGAATTCCGGTCTCCC
DNA 2: TGGTGGCTACGACGGGATT
B11: AUCCGAA (DNA:RNA)
RNA: B3 RNA with C25A, C26U, C29G, C30A
DNA 1: CAATCTGAATTCCGGTCTCCC
DNA 2: TGGTGGCTACGACGGGATT
B12: UAAGCUC (DNA:RNA)
RNA: B1 RNA with A25U, G26A, G27A, A28G, A29C, G31C
DNA 1: CAATCTGAATTCCGGTCTCCC
DNA 2: TGGTGGCTACGACGGGATT
B13: ACUAGCG (DNA:RNA)
RNA: B1 RNA with G26C, G27U, A29G, U30C
DNA 1: CAATCTGAATTCCGGTCTCCC
DNA 2: TGGTGGCTACGACGGGATT
B14: UCCGCGA (DNA:RNA)
RNA: B3 RNA with C25U, C28G, C30G
DNA 1: CAATCTGAATTCCGGTCTCCC
DNA 2: TGGTGGCTACGACGGGATT
B15: GGAAGAC (DNA:RNA)
RNA: B1 RNA with A25G, G27A, A29G, U30A, G31C
DNA 1: CAATCTGAATTCCGGTCTCCC
DNA 2: TGGTGGCTACGACGGGATT
B16: AUACACU (DNA:RNA)
RNA: B1 RNA with G26U, G27A, A28C, U30C, G31U
DNA 1: CAATCTGAATTCCGGTCTCCC
DNA 2: TGGTGGCTACGACGGGATT
B17: ACAAAAC (DNA:RNA)
RNA: B1 RNA with G26C, G27A, U30A, G31C
DNA 1: CAATCTGAATTCCGGTCTCCC
DNA 2: TGGTGGCTACGACGGGATT
B18: GUUGGAU (DNA:RNA)
RNA: GGGAGACCGGAAUUCAGAUUGUCCGUUGGAUUUAAAUCCCGUCGUAGCCACCA
DNA 1: CAATCTGAATTCCGGTCTCCC
DNA 2: TGGTGGCTACGACGGGATT
B19: AACUUUG (DNA:RNA)
RNA: B1 RNA with G26A, G27C, A28U, A29U
DNA 1: CAATCTGAATTCCGGTCTCCC
DNA 2: TGGTGGCTACGACGGGATT
B20: UGCAUAC (DNA:RNA)
RNA: B1 RNA with A25U, G27C, A29U, U30A, G31C
DNA 1: CAATCTGAATTCCGGTCTCCC
DNA 2: TGGTGGCTACGACGGGATT

These binders were tested against T1, RBFOX1 RRM RbFoxmut (Fox-RRM*) (assay: EMSA; HiTS-Eq, 1 nM pool, 10 min; buffer printed only for the single-RNA assays: 10 mM Tris pH 7.5, 150 mM NaCl, 3.4 mM EDTA, 0.001% NP-40, 30 C). Conditions: tags: His6 N-terminal (pET28a); label: 5' 32P.
In short: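 Purified RbFox RRM, wild type or mutant, was incubated for 10 min in 50 µL with 1 nM of a 5′-radiolabelled RNA pool carrying 7 randomized nucleotides, whose flanks were annealed to DNA oligonucleotides, over a series of increasing protein concentrations. Unbound RNA was resolved on 8% native PAGE, cut out, reverse-transcribed, barcoded by PCR and sequenced on an Illumina HiSeq 2500. Relative association constants were derived from changes in read counts for each RNA species versus the control reaction and normalised to the cognate motif.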

Row | Binder | binding signal
1 | B1 | 1.4 KA relative to UGCAUGU
2 | B2 | 0.0679 KA relative to UGCAUGU
3 | B3 | 0.0562 KA relative to UGCAUGU
4 | B4 | 0.21 KA relative to UGCAUGU
5 | B5 | 0.75 KA relative to UGCAUGU
6 | B6 | 0.0924 KA relative to UGCAUGU
7 | B7 | 0.161 KA relative to UGCAUGU
8 | B8 | 0.148 KA relative to UGCAUGU
9 | B9 | 0.11 KA relative to UGCAUGU
10 | B10 | 0.053 KA relative to UGCAUGU
11 | B11 | 0.104 KA relative to UGCAUGU
12 | B12 | 0.0457 KA relative to UGCAUGU
13 | B13 | 0.12 KA relative to UGCAUGU
14 | B14 | 0.071 KA relative to UGCAUGU
15 | B15 | 0.0498 KA relative to UGCAUGU
16 | B16 | 0.0951 KA relative to UGCAUGU
17 | B17 | 0.101 KA relative to UGCAUGU
18 | B18 | 0.0856 KA relative to UGCAUGU
19 | B19 | 0.0853 KA relative to UGCAUGU
20 | B20 | 0.161 KA relative to UGCAUGU
